# The supplement of paper PMC10126150
# Sequences with one replicate were seen in a single cluster, so their values are uncertain.
# System: ATP
# Assay: switch fluorescence ratio, 500 uM ATP over buffer (Cy3 cluster intensity, sum of 5 cycles each) (fold (ratio)); higher = stronger signal-on switching upon ATP binding; sequences stand for … in TCGTCGGCAGCGTCAGATGTGTATAAGAGACAGTTTTTTTTTTTTTTTTTTTTTTTTT…TC
# Settings: aptamer strand: ATP DNA aptamer (quencher-CACCTGGGGGAGTATTGCGGAGGAAGG + anchor), 100 nM annealed; ATP concentration: 500 uM; one replicate
# Procedure, shortened: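 Clusters with intensities outside 100-1000 RFU were excluded. The remaining Cy3-labelled switching-strand clusters on a modified Illumina MiSeq flow-cell had been annealed to 100 nM quencher-labelled ATP aptamer and imaged in selection buffer, then after 15 min with 500 uM ATP at 22 °C, for five cycles separated by NaOH stripping and re-annealing. The fluorescence ratio, averaged per switch-domain sequence, is each cluster's summed target-cycle Cy3 intensity over its summed buffer-cycle Cy3 intensity.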
# 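Further: ATP exposure 15 min at 22 °C before imaging.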
row,Sequence,switch fluorescence ratio
1,GTTGGGCGTG,1.01
2,GTTGGGTACC,1.03
3,GTTGTAAATA,1.04
4,GTTGTCCGGC,0.954
5,GTTGTCCTGT,0.953
6,GTTGTCGTTA,1.05
7,GTTGTCTGTG,0.985
8,GTTGTGAGAC,1.02
9,GTTGTGATTA,1.02
10,GTTGTGTAG,1.01
11,GTTGTGTCAC,1.01
12,GTTGTTCGTC,0.95
13,GTTGTTGGTT,1.01
14,GTTTAATGT,0.95
15,GTTTACACCG,1.06
16,GTTTAGCTTT,0.999
17,GTTTATAC,1.07
18,GTTTATCCGG,0.98
19,GTTTATCCTG,0.971
20,GTTTATGAGT,1
21,GTTTATTTTA,1.01
22,GTTTATTTTG,1.03
23,GTTTCAATCG,1.01
24,GTTTCACGGC,0.996
25,GTTTCAGCGT,1.02
26,GTTTCATATT,1.03

row,Sequence,switch fluorescence ratio
1,GTTTCATTGT,0.958
2,GTTTCGCGCG,1
3,GTTTCTACAT,0.97
4,GTTTCTTTCT,0.955
5,GTTTGCAGCC,0.995
6,GTTTGCCGGT,0.945
7,GTTTGCTTGC,1
8,GTTTGGCGAG,0.992
9,GTTTGGGCG,0.988
10,GTTTGGGTTC,1.01
11,GTTTGGTCGC,0.973
12,GTTTGTCGTC,1.04
13,GTTTGTCTAG,0.984
14,GTTTGTTAAG,1.02
15,GTTTGTTTAT,0.989
16,GTTTTAATTG,1.01
17,GTTTTATACA,0.989
18,GTTTTCGAGG,0.986
19,GTTTTCGTGT,0.992
20,GTTTTGGTCT,1
21,GTTTTGTCTA,0.945
22,GTTTTTACG,1.03
23,GTTTTTCC,1.06
24,GTTTTTGCGA,0.972
25,TAAAAAAGGG,0.954
26,TAAAAACCCC,1.05

row,Sequence,switch fluorescence ratio
1,TAAAAACGT,1.03
2,TAAAACGCAG,1.02
3,TAAAAGGCGT,0.982
4,TAAAAGGTA,1.03
5,TAAAAGTAT,1.01
6,TAAAAGTTTC,1.08
7,TAAAATCCAC,1.06
8,TAAAATGATG,1.02
9,TAAAATGCCT,1.12
10,TAAACCCAAA,0.992
11,TAAACCGAGT,1.19
12,TAAACGATCT,1.01
13,TAAACGTTCA,1.29
14,TAAACGTTGG,1.05
15,TAAACTATAA,0.962
16,TAAAGACAGT,1.03
17,TAAAGCGGCC,1.2
18,TAAAGCGGGG,1.01
19,TAAAGGTCTC,1
20,TAAAGTCTGG,0.963
21,TAAATAAGGG,0.981
22,TAAATACATG,0.967
23,TAAATAGCTC,1.03
24,TAAATAGGAA,1.01
25,TAAATCATTA,1.03
26,TAAATCCGCT,1.22

row,Sequence,switch fluorescence ratio
1,TAAATCGGAA,1
2,TAAATCTGAG,1.05
3,TAAATGGTT,0.999
4,TAAATGTCCG,1.03
5,TAAATGTGCA,1.02
6,TAAATTCTT,1.01
7,TAAATTTCAC,1.02
8,TAACAATAAG,1.03
9,TAACACCCGA,1.07
10,TAACAGCTTT,1.06
11,TAACCAGGCC,1.05
12,TAACCATGAG,0.978
13,TAACCGGATA,1.05
14,TAACCGTACG,1.44
15,TAACCTACGG,1.17
16,TAACGAGCTT,1.04
17,TAACGAGT,0.992
18,TAACGAGTTT,0.995
19,TAACGATGCT,1.01
20,TAACGATTAT,0.991
21,TAACGCCATT,1.06
22,TAACGGGGAT,1.06
23,TAACTATTAT,1.02
24,TAACTCACCT,1.28
25,TAACTCGCAA,2.13
26,TAACTCTATG,0.967

row,Sequence,switch fluorescence ratio
1,TAACTTCGGA,1.03
2,TAACTTTTTC,1.17
3,TAAGAACTTA,1.01
4,TAAGACGAGG,1
5,TAAGACGCAC,1.59
6,TAAGACGTC,0.99
7,TAAGATGCTG,0.997
8,TAAGCAATGA,2.83
9,TAAGCATCGA,1.05
10,TAAGCCATAG,1.13
11,TAAGCGAGCG,1.23
12,TAAGCTACGG,1.15
13,TAAGCTAGGG,0.989
14,TAAGGAAAGC,1.05
15,TAAGGAAGGC,0.988
16,TAAGGAGCCC,1.01
17,TAAGGATTTG,0.978
18,TAAGGCATCC,1.09
19,TAAGGCGCGG,1
20,TAAGGCGGAA,1.22
21,TAAGGGAGAG,1.01
22,TAAGGGGCTG,1.01
23,TAAGGGGTT,1.03
24,TAAGGGTCT,0.982
25,TAAGGTCTAT,0.997
26,TAAGGTTTT,1.03

row,Sequence,switch fluorescence ratio
1,TAAGTAGTCT,1.01
2,TAAGTAGTTG,0.966
3,TAAGTATGC,0.975
4,TAAGTCAAAT,1
5,TAAGTCGGTA,1.01
6,TAAGTGATAT,0.964
7,TAAGTGCGG,0.979
8,TAAGTGCTAA,1
9,TAAGTGTCAC,0.971
10,TAAGTTCCGA,1.06
11,TAAGTTGAAC,0.993
12,TAATACAGCT,1.01
13,TAATACTGTG,0.995
14,TAATACTTGG,1.05
15,TAATAGCAAT,2.53
16,TAATAGCCAG,0.973
17,TAATAGGGAC,1.02
18,TAATAGTGAA,1.07
19,TAATATATTC,0.97
20,TAATATGGCA,0.987
21,TAATCAAGTG,0.994
22,TAATCATGCA,0.979
23,TAATCATGTT,0.973
24,TAATCCCAAA,0.999
25,TAATCCGAGC,1.02
26,TAATCGAAC,0.98

row,Sequence,switch fluorescence ratio
1,TAATCGCTTG,1.01
2,TAATCTAATT,0.989
3,TAATCTCTAT,1.04
4,TAATGAGATG,1.08
5,TAATGCAG,0.978
6,TAATGCGTCC,0.974
7,TAATGCTACT,1
8,TAATGCTAG,1.02
9,TAATGGCCGT,1.06
10,TAATGGCTGC,1.05
11,TAATGTTCTG,1.05
12,TAATTAAT,1.01
13,TAATTAGGAG,1.02
14,TAATTATAA,1.04
15,TAATTCAAGA,0.967
16,TAATTCAGGC,0.97
17,TAATTGCAGG,1.01
18,TAATTGCGCT,1.02
19,TAATTGGGAC,1.01
20,TAATTGTTGG,0.968
21,TAATTTACCC,1
22,TACAAACGT,1.64
23,TACAACCGTA,1.06
24,TACAACGAGT,1.01
25,TACAAGGGGC,0.995
26,TACAATAAAA,1

row,Sequence,switch fluorescence ratio
1,TACAATCGAA,0.977
2,TACAATTCTA,0.996
3,TACACCAGAA,1.05
4,TACACCGGGT,1.11
5,TACACGGTA,1.12
6,TACACTTCGG,1.01
7,TACAGAAAGT,0.995
8,TACAGAGTAT,1.04
9,TACAGCCCAC,1.18
10,TACAGCCGGG,1.06
11,TACAGGAACA,1.04
12,TACAGGCTGT,1.03
13,TACAGGGATG,0.993
14,TACAGGGTTC,1
15,TACAGTACGC,1.38
16,TACAGTTAAA,0.973
17,TACATAAGTC,1.11
18,TACATGAGAA,1.02
19,TACATGCGAC,1.17
